# From PubChem BioAssay AID1466 (National Center for Advancing Translational Sciences (NCATS), 2008)
# The campaign covered roughly 200,000 compounds. About 10 (0.005%) were called active. The shares of active, inactive and inconclusive entries below differ from those in the screen. Calls follow the shape of the dose curve; as a rule, active = well fitted inhibition curve with a large enough effect; inconclusive = small, poorly fitted or top-dose-only effect, or effect the other way, or another doubt; inactive = no such curve, though single readings can be large or run the other way. Potencies of inconclusive entries are left out as doubtful fits.
# Target: Lysosomal alpha-glucosidase (Homo sapiens) (UniProt P10253)
# Test: qHTS Assay for Inhibitors of Human alpha-Glucosidase as a Potential Chaperone Treatment of Pompe Disease;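 as to activity change, negative = inhibition: plate controls were uninhibited enzyme wells for no effect and no-enzyme background for full effect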
# Conditions: purified human GAA, 4-MU-alpha-glucoside fluorescence; activity change, negative = inhibition: at 76.9 µM (top of the series) unless noted
# Method in brief: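 Read-out is 4-methylumbelliferone fluorescence (Ex 365/Em 440 nm) after NaOH/glycine stop at pH 10. Enzyme 4 nM, substrate 400 uM, pH 5.0 citrate buffer, 20 min room temperature; AC50 from Hill-equation concentration-response.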
# Potency is read from the fitted curve at half-maximal effect; tags tell the direction and shape of the fitted curve.
Compound,"activity change, negative = inhibition",Potency
CC(=O)Nc1sc2c(c1C#N)CCC(C)C2 (stereo unspecified),inconclusive: 17.5% [activator],
NS(=O)(=O)c1ccc(CCNC(=O)c2ccc([N+](=O)[O-])cc2[N+](=O)[O-])cc1,inconclusive: 5.97% [activator],
COc1ccc2[nH]c(C)c(CCNC(=S)Nc3ccc(C)cc3)c2c1,,"inconclusive [inhibitor, single point]"
O=C(NCCCn1ccnc1)c1cc(-c2ccc(Br)cc2)on1,,"inconclusive [inhibitor, single point]"
O=C(N/N=C/c1cnc(N2CCOCC2)s1)c1ccccc1,,"inconclusive [inhibitor, single point]"
O=C(Nc1ccc(Cl)cc1)Nc1ccccc1C(=O)NCc1ccco1,,"inconclusive [inhibitor, single point]"
Cn1c(=O)oc2cc(S(=O)(=O)Nc3cccc4c3CCCC4)ccc21,,"inconclusive [inhibitor, single point]"
CCN(CC)CC(=O)Nc1ccc(Oc2ccc(NC(=O)CN(CC)CC)cc2)cc1,,"inconclusive [inhibitor, single point]"
Cc1ccccc1NC(=O)C(=O)NCc1ccccn1,,"inconclusive [inhibitor, single point]"
Cc1cc(O)c(N)c(C)c1Cl,,inactive
O=C(CN(c1ccccc1Cl)S(=O)(=O)c1ccccc1)N/N=C/c1ccccc1C(=O)O,,"inconclusive [inhibitor, single point]"
O=C(CCCCn1c(=O)[nH]c2ccccc2c1=O)N1CCN(c2cccc(C(F)(F)F)c2)CC1,,"inconclusive [inhibitor, full curve]"
Cc1ccc(Cl)cc1N1CCN(C(=O)Cc2cn(C)c3ccccc23)CC1,inconclusive: -16% [inhibitor],
CCCOc1ccc2oc(=O)c3c(c2c1)CCCN3C(=O)CN1CCN(C(=O)c2ccco2)CC1,,"inconclusive [inhibitor, partial curve]"
Cc1cccc(NC(=O)c2ccccc2O)c1C,inconclusive: -19% [inhibitor],
CCOC(=O)c1cc(-c2ccccc2)nc2nc(N3CCCCC3)sc12,,"inconclusive [activator, partial curve]"
O=C(CSc1nc2ccccc2c(=O)n1Cc1ccccc1)NCc1ccco1,,"inconclusive [inhibitor, partial curve]"
O=C(CN1C(=O)C(=O)c2ccccc21)NC1CCCCC1,,"inconclusive [inhibitor, full curve, poor fit]"
COc1ccc2c(c1)c1ncn(CCN3CCNCC3)c(=O)c1n2C,,"inconclusive [activator, single point]"
Cc1cccc(NCc2ccccc2O)c1C,,"inconclusive [inhibitor, single point]"
COC(=O)c1cc(O)c(OCc2ccccc2)c(O)c1,,inactive

Compound,"activity change, negative = inhibition",Potency
C=CCn1c(SCc2c(C)noc2C)nc2sc3c(c2c1=O)CCCC3,,"inconclusive [activator, partial curve]"
Nc1nc2ccccc2n1/N=C/c1ccc(Br)cc1,,"inconclusive [inhibitor, single point]"
CCOC(=O)c1[nH]c(C)c(C(=O)OCCN2C(=O)c3ccccc3C2=O)c1C,,"inconclusive [inhibitor, single point]"
COc1cc(CN2CCNC(=O)C2CC(=O)N2CCCCO2)cc(OC)c1 (stereo unspecified),,inactive
Cc1nc2sc(C(c3cccs3)N3CCN(c4cccc(Cl)c4)CC3)c(O)n2n1 (stereo unspecified),,"inconclusive [inhibitor, full curve]"
O=C(Nc1cc(C(F)(F)F)ccc1N1CCOCC1)c1ccc(Cl)nc1,,"inconclusive [inhibitor, single point]"
COc1ccc(C(=O)Nc2ccccc2C(=O)NCCN2CCOCC2)cc1,,"inconclusive [inhibitor, single point]"
Cn1cnnc1Sc1cc(N2CCN(S(=O)(=O)c3ccccc3)CC2)ccc1[N+](=O)[O-],,"inconclusive [inhibitor, single point]"
N#Cc1c[nH]n2c(=O)cc(Cc3ccccc3)nc12,inconclusive: -16.2% [inhibitor],
COc1ccc(NC(=S)N(CCCN2CCCC(C)C2)Cc2cccs2)cc1 (stereo unspecified),,"inconclusive [inhibitor, full curve, poor fit]"
CCOC(=O)C1=C(C)NC(SCC(=O)Nc2nc(C)cs2)=C(C#N)C1c1cccs1 (stereo unspecified),,"inconclusive [inhibitor, single point]"
O=C(Oc1cc2oc(=O)c3c(c2cc1Cl)CCCC3)c1cccs1,,"inconclusive [activator, partial curve]"
Cc1ccc(S(=O)(=O)NC(=O)c2cc(C)n(CC(c3ccccc3)N(C)C)c2C)cc1 (stereo unspecified),,"inconclusive [inhibitor, partial curve, poor fit]"
CCn1cc(C(=O)NCCCN2CCCCCC2)c(=O)c2cc(S(=O)(=O)N3CCc4ccccc4C3)ccc21,,"inconclusive [inhibitor, single point]"
Cc1ccc(S(=O)(=O)c2c(N)n(/N=C/c3ccco3)c3nc4ccccc4nc23)cc1C,,"inconclusive [activator, single point]"
CS(=O)(=O)N1CCCC(C(=O)Nc2ccc3c(c2)OCCO3)C1 (stereo unspecified),,"inconclusive [inhibitor, full curve, poor fit]"
O=C(c1cc([N+](=O)[O-])ccc1Cl)N1c2ccccc2Sc2ccccc21,,"inconclusive [inhibitor, single point]"
Cn1c(C(=O)N2CCCC(C(=O)NCCCc3ccccc3)C2)cc2sccc21 (stereo unspecified),,"inconclusive [inhibitor, single point]"
CCN1CCN(Cc2c(O)c(Cl)cc3c(C)cc(=O)oc23)CC1,,"inconclusive [activator, partial curve]"
CN(C(=O)COc1ccccc1)C1CCS(=O)(=O)C1 (stereo unspecified),inconclusive: 18.3% [activator],
